We go through 56 molecules from article PMC4336329 (PLoS ONE, 2015).

Among all 310,000 compounds or so, about 2,200 (0.71%) showed an effect of 50% or more. The effect is printed as a negative number. Some of the results follow.

For the experiment, the target named is human ether-à-go-go-related gene (hERG) potassium channel (human, UniProt Q12809). The experiment is described as follows: primary screen, population patch clamp on CHO cells stably expressing hERG.
Sequence of human ether-à-go-go-related gene (hERG) potassium channel (Q12809 whole entry, looked up): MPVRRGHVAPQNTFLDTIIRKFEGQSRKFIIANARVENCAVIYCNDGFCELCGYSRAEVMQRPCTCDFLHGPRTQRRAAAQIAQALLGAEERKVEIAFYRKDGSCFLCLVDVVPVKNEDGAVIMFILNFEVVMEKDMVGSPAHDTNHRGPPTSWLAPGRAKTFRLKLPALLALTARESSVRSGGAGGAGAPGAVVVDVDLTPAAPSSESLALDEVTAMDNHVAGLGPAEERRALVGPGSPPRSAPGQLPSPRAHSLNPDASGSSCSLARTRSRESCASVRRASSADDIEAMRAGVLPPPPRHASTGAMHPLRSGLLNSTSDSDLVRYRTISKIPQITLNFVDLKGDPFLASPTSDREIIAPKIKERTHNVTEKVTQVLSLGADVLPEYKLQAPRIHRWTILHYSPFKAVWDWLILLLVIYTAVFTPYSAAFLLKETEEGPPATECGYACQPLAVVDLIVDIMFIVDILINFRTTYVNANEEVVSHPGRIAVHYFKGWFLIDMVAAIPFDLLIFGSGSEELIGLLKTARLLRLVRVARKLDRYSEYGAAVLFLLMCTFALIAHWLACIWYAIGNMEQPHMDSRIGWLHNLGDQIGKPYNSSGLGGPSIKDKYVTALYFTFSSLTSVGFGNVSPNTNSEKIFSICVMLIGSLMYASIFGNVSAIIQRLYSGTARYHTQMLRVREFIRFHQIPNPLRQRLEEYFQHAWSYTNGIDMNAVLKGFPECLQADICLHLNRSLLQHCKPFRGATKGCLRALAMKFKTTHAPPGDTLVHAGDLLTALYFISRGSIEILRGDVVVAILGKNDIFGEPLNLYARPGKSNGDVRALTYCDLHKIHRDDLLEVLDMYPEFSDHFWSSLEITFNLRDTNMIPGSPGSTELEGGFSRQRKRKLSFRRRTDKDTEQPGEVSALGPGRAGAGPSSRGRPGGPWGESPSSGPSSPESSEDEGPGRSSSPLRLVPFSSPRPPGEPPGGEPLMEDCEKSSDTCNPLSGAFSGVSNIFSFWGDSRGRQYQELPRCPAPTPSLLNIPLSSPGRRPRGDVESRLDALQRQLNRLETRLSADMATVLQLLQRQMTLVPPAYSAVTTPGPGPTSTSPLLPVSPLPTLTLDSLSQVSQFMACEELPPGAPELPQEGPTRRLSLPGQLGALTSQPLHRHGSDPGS
Consider `O=S(=O)(NCc1cn2ccsc2n1)c1cccs1`, for which the “hERG current change (%, negative = inhibition) at 1uM” value is on record as 16.3%.

Turning to `COc1ccc2c(=O)c3c(=O)n(Cc4ccco4)c(C(C)C)nc3oc2c1`, the “hERG current change (%, negative = inhibition) at 1uM” value was 7.78%. With `O=S(=O)(c1cccc(-c2nnc(SCc3ccc(Cl)cc3)o2)c1)N1CCCCC1`, the “hERG current change (%, negative = inhibition) at 1uM” value came to 7.67%. Next, `CCOc1ccc(C=O)cc1CN1CCCCC1.Cl`: 0.149%; `CCC1CN(C(=O)NCc2cccc(OC)c2)c2ccccc2O1` (centres unmarked): 9.43%; `Cn1c(NCc2ccco2)nc2c1c(=O)n(Cc1ccc(Cl)cc1Cl)c(=O)n2C`: 8.58%. For the molecule `O=C1Cc2ccccc2C(c2c(Cl)cccc2Cl)N1` (centres unmarked), the “hERG current change (%, negative = inhibition) at 1uM” value stood at 11%. Next, `COC(=O)Cn1cc([N+](=O)[O-])nc1C`: 9.6%. Next, `COc1ccc(CCC(C)NCc2ccc(F)cc2)cc1` (centres unmarked): 13.2%.

For `CCN=C1S/C(=C\c2cc(Br)ccc2OCC(=O)OCC)C(=O)N1CC`, the “hERG current change (%, negative = inhibition) at 1uM” value worked out at 3.38%. Regarding `COc1ccc(-n2nnnc2SC(C)C(N)=O)cc1` (centres unmarked), the “hERG current change (%, negative = inhibition) at 1uM” value was found to be 16.9%.

Consider `CCCN(CCC)CCCNC(=S)Nc1ccc2nc(N3CCN(CC)CC3)cc(C)c2c1`, for which the “hERG current change (%, negative = inhibition) at 1uM” value is on record as 8.71%. Next, `NC(=O)C1(N2CCCCC2)CCN(c2nc(-c3ccc(Br)cc3)cs2)CC1`: -3.89%. Take `COc1cccc(CCN2CCC(CNS(=O)(=O)c3cc(-c4cc(C)no4)ccc3C)CC2)c1`: the “hERG current change (%, negative = inhibition) at 1uM” value is -20.1%. Next, `Cc1ccc(NC(=S)N(CCCN(C)C)Cc2cc3cc4c(cc3[nH]c2=O)OCO4)cc1`: -4.16%; `COc1ccc(C)cc1NC(=O)CO/N=C(\N)CC(=O)Nc1ccccc1OC`: 8.58%. For the molecule `Nn1c(SCC(=O)Nc2ccc3c(c2)OCCO3)nnc1-c1cccnc1`, the “hERG current change (%, negative = inhibition) at 1uM” value stood at 7%. Next, `COc1ccc(CC(=O)N2CCN(C(=O)c3ccco3)CC2)cc1`: 8.56%.

For `O=C(O)c1ccc2c(c1)S(=O)(=O)c1cc(Cl)ccc1C2=O`, the “hERG current change (%, negative = inhibition) at 1uM” value is on record as 15.4%. Next, `O=C(NC(=S)Nc1cccc(C(F)(F)F)c1)c1csnn1`: 23%; `Cc1ccc(-c2nc3c(c(=O)c4ccccc4n3C)c(=O)n2-c2ccc(F)cc2)cc1`: 8.25%; `O=C(CNC(=O)C12CC3CC(CC(C3)C1)C2)N1CCN(S(=O)(=O)/C=C/c2ccccc2)CC1`: 16%. Next, `O=C(/C=C/c1ccccc1)/C=C/c1ccccc1`: 16.3%; `CCN(CC)C(=O)CSc1nnc(CCN)o1.Cl`: 17.4%.

In the case of `COc1ccc(N(C(=O)c2cccc([N+](=O)[O-])c2)S(=O)(=O)c2cccs2)cc1`, the “hERG current change (%, negative = inhibition) at 1uM” value is 10.2%.

As for `Cc1cc(NC(=O)c2cc([N+](=O)[O-])cc([N+](=O)[O-])c2C)no1`, the “hERG current change (%, negative = inhibition) at 1uM” value worked out at 6.54%. Next, `Cc1ccc(CS(=O)(=O)CCC(=O)NCCCN2CCCC2=O)cc1`: 10.7%; `c1ccc2c(c1)CCCN2Cc1nnnn1CC1CCCO1` (centres unmarked): 13.2%. Next, `O=C(c1ccco1)N1CCN(C(=O)C2c3ccccc3Oc3ccccc32)CC1`: -0.994%. Next, `Cc1ccc(Nc2nc(Cl)nc(NC(C)(C)C)n2)cc1`: 11.9%; `O=C(O)C(F)(F)F.O=C1C(Cc2ccccc2)Nc2ncnc(N3CCc4ccccc4C3)c2N1Cc1ccc(Br)cc1` (centres unmarked): 14.7%. Consider `c1ccc(Cn2nnnc2C(c2ccncc2)N2CCOCC2)cc1` (centres unmarked), for which the “hERG current change (%, negative = inhibition) at 1uM” value is recorded as 7.52%. Next, `COc1ccc(NC(=O)c2cc3c(COC(C)=O)cnc(C)c3oc2=Nc2cccc(C(=O)O)c2)c(OC)c1`: 8.72%. Next, `CCOC(=O)c1ccc(Oc2nc(SC)nc(N(C)C)n2)cc1`: 7.66%; `COc1cc(OC)c(OC)cc1CNC(=O)c1ccc(S(=O)(=O)N2CCCCC2)cc1`: 12%.

On to `C=CCn1c(SCC(=O)N2CCN(c3ccc(F)cc3)CC2)nnc1-c1ccco1`, for which the “hERG current change (%, negative = inhibition) at 1uM” value is listed as -67%.

In the case of `CN1c2ccccc2C(=O)/C(=C\Nc2ccc(F)cc2F)S1(=O)=O`, the “hERG current change (%, negative = inhibition) at 1uM” value is on record as 1.35%.

In the case of `CCCCC1(CC)C(=O)NC(=O)NC1=Nc1ccc(OC)cc1` (centres unmarked), the “hERG current change (%, negative = inhibition) at 1uM” value came to 6.44%.

Turning to `CCc1ccc(/C=c2\s/c(=C\C(=O)C(C)(C)C)[nH]c2=O)cc1`, the “hERG current change (%, negative = inhibition) at 1uM” value is 8.54%.

Turning to `CCCn1c(SCC(=O)Nc2nnc(C(C)C)s2)nc2c1c(=O)n(C)c(=O)n2C`, the “hERG current change (%, negative = inhibition) at 1uM” value was 12.4%. Next, `Nc1ccc(-c2nc3ncccc3o2)c(O)c1`: 4.89%; `O=C1CC(=O)C(n2cncn2)C(c2cccc(Cl)c2)C1` (centres unmarked): 15.8%; `COc1ccc2[nH]c(CN3CCC(n4nccc4NC(=O)C4CC4)CC3)c(C)c2c1`: -33.1%. Next, `Cc1ccccc1OCC(=O)NC(Cc1c[nH]c2ccccc12)C(=O)O` (centres unmarked): 14.4%. Next, `COc1ccccc1N1CCN(C2CCCN(C(=O)c3ccoc3)C2)CC1` (centres unmarked): -3.1%; `Cc1ccc(OCc2nnc(NC(=O)c3ccco3)s2)c(C)c1`: 17.8%. In the case of `O=C1CCS/C(=N\N=C\c2ccc(Cl)cc2Cl)N1`, the “hERG current change (%, negative = inhibition) at 1uM” value is reported as -2.19%. Next, `O=C(O)C(=O)O.c1ccc(OCCN2CCOCC2)cc1`: 14.5%. Regarding `COc1ccc(CCNc2nc(C)c(C(C)=O)s2)cc1OC`, the “hERG current change (%, negative = inhibition) at 1uM” value was 11.7%. Next, `COC(=O)Nc1ccc2c(c1)ncn2C1CCCCC1`: 0.75%; `Cn1cc(Br)c(C(=O)NC2CCCCCC2)n1`: 6.01%. As to `CN(C)S(=O)(=O)N1CCN(c2ccc([N+](=O)[O-])cc2)CC1`, the “hERG current change (%, negative = inhibition) at 1uM” value is reported as -60.5%. Turning to `O=C(O)c1ccc(-c2nc(-c3ccc(Cl)cc3Cl)cs2)cc1`, the “hERG current change (%, negative = inhibition) at 1uM” value is on record as 16.7%. Next, `O=C(COC(=O)CN1C(=O)C2CCCCC2C1=O)NCc1ccc(Cl)cc1Cl` (centres unmarked): 10.4%; `O=C(CSc1nc2ccccc2c(=O)n1-c1ccccc1Cl)Nc1cccc(S(=O)(=O)N2CCOCC2)c1`: 11.4%.

For `CCN(CC)c1ccc(/C=C2/C(=O)NC(=O)N(Cc3ccco3)C2=O)cc1`, the “hERG current change (%, negative = inhibition) at 1uM” value is reported as -16.9%.
